The RNAGym collection of RNA variant scans (doi:10.7554/elife.90254)
Read counts are not given, so values of variants with three or more changes are uncertain.

B1: LINE1-mini (parent)
chain: GGCAGAGCUCAACACAGCGUGGCAAAGUGGCUGUGGCUAGACUGCC

Variants of: B1
Assay: self-cleavage, relative activity (ratio to wild type); higher = more cleavage; in vitro, sequencing; the parent is a self-cleaving ribozyme

| Variant | self-cleavage |
| --- | --- |
| GGCAGAGCUCAAGACAGCGUCGCAUAGUGGCUGUGGUUAGGCUGCC | 0.12 |
| GGCAGAGCUCAAGACAGCUUGGCAAAGUGGCUGUGGCGAUACUGCC | 0.04 |
| GGCAGAGCUCAAUACGGCGUGGCAAAGUGGCUGUGGCUAGGCUGCC | 0.02 |
| GGCAGAGCUCAAGACAGCGAGGCAACGUGCCUGUGGCUAGACUGCC | 0.11 |
| GGCAGAGCUCAAGACAGCGUGGCAAAGUCGCGGUCGCUAGACUGCC | 0.18 |
| GGCAGAGCUCAAGACAGCGUGGCAAAGUGGCUGUGGGUAAACUGCC | 0.05 |
| GGCAGAGCUCAAGACAGCUUGGCAAAGUGGCUGUGGAUAUACUGCC | 0.02 |
| GGCAGAGCUCAAUCCAGCGUGGCAAAGUGGCUGUGGCUAGACUGUC | 0.07 |
| GGCAGAGCUCAAUUCAGCGAGGCAAAGUGACUGUGGCUAGAUUGCC | 0.16 |
| GGCAGAGCUCAAGACACCGCGGCAAAGUGGCUGUGGCUAGACAGCC | 0.16 |
| GGCAGAGCUCAAGACAGCGGGGCAAAGUGUCUGUGGCUAGACUGCC | 0.02 |
| GGCAGAGCUCAAUACCGCCUGGCAAAGUGGCUGUGGAUAGACUGUC | 0.09 |
| GGCAGAGCUCAAUCCAGCGUGGCAAAGUGGCUUUGGCUAAACUGCG | 0 |
| GGCAGAGCUCAAUACCGCGUGGCAAAGUGGCUGUGUCUAGACUGCC | 0.56 |
| GGCAGAGCUCAAGACAGCCUGGCAAAGUGGCUGUGGCUGGACUGCC | 0.08 |
| GGCAGAGCUCAAGACAUCGUGGCAUAGUGGCUGUGGCUAGACUGCC | 0.07 |
| GGCAGAGCUCAAUACUGCGUGGGAAAGUGGCUGUGGCUAGACUGCC | 0.23 |
| GGCAGAGCUCAAGACAGCGUGGCAAAGUGGCUGUUACUAGACUGCC | 0.44 |
| GGCAGAGCUCAAGACAGCGUGGCAAAGUCGCUGUGGCUAGAUGCCC | 0 |

| Variant | self-cleavage |
| --- | --- |
| GGCAGAGCUCAAGACAGCGUUGCAAAGUGUCUGUGGCUAGACUGCC | 0.04 |
| GGCAGAGCUCAAGACACCGGGGCAAAGUGGCUGUGGCUAGACUGCC | 0.12 |
| GGCAGAGCUCAAGACAGCGGGGCAUAGUGGCUGUGGCUAGACUGCC | 0.19 |
| GGCAGAGCUCAAUCCAGCGUGGCAAAGUGGCUGUGGGCAGACUGCC | 0.05 |
| GGCAGAGCUCAAGACAGCGUGGCAAAGUCGCUCUGGCUAGACGGCC | 0 |
| GGCAGAGCUCAAUACGGCAUGGCAAAGUGGCUGUGGCUAGACUGCC | 0 |
| GGCAGAGCUCAAGACAGCGUUUCAAAGUGGCUGUGGCUAGACUGCC | 0.16 |
| GGCAGAGCUCAAGACAGCGUUCCAAAGUGGCUGUGGCUAGACUGCC | 0.12 |
| GGCAGAGCUCAAGACAGCGUGGCAAAGUCUUUGUGGCUAGACUGCC | 0.07 |
| GGCAGAGCUCAAUACGUCGUGGCAAAGUGGCUAUGGCUAGAUUGCC | 0.01 |
| GGCAGAGCUCAAUCCAGCGUGGCAAAGUGGCUGUGGCUAAACUGCC | 0.17 |
| GGCAGAGCUCAAUACUGGGUGGCAAAGUGGCUGUGACUAGACUGCC | 0.1 |
| GGCAGAGCUCAAGACAACGAGGCAAAGUGGCUGUGGCUGGACUGCC | 0.02 |
| GGCAGAGCUCAAGACAGCGUCGCCAAGUUGCUGUGGCUAGACCGCC | 0.09 |
| GGCAGAGCUCAAGACAGCGUUGCAAAGUUGCUGUGGCUAUACUGCC | 0.12 |
| GGCAGAGCUCAAUUCAGAGCGGCAAAGUGGCUGUGGCUAGACUGCC | 0.02 |
| GGCAGAGCUCAAUUCAGCGUGGAAAAGUGGCUGUGGCUAGACUGCC | 0.12 |
| GGCAGAGCUCAAGACAUCGUGGCAAAGUGGCUGUAGCUAGACUGCC | 0.05 |
| GGCAGAGCUCAAGACAUCGCGGCAAAGUGGCUGUGGCUAGACUGCC | 0.01 |

| Variant | self-cleavage |
| --- | --- |
| GGCAGAGCUCAAGACAUCGUGGUAAGGUGGCUGUGGCUAGACUGCC | 0.02 |
| GGCAGAGCUCAAGACAGCGUGGCAAACUGCCUGUGGCUAGACUACC | 0.03 |
| GGCAGAGCUCAAGACAGCGUGGCAAAGUGGCUCUGGGUUGACUGCC | 0.12 |
| GGCAGAGCUCAAGACACCGUGGCAAAGUGGCUGUGGCUAGACUCCC | 0.01 |
| GGCAGAGCUCAAGACAGCGUGGCAAAAUAGCUGUGGCAAGACUGCC | 0.23 |
| GGCAGAGCUCAAGACAGCGUGGCAAAGUGGCUGUUGCUAGUCUGCC | 0.16 |
| GGCAGAGCUCAAGACAGCGUGGCAAACUAGCUGUGGCUAGACUGCC | 0.17 |
| GGCAGAGCUCAAGACAGCGUGGCAAAGUGGCUUUGGCUACACUGCC | 0.9 |
| GGCAGAGCUCAAGACACCGUGGCAAAUUGGCUGUGGCUAGACUGCC | 0.03 |
| GGCAGAGCUCAAUACGGCGUGGCCAAGUGGCUGUGGCUAGAAUGCC | 0.1 |
| GGCAGAGCUCAAGACAGCUUGGCAAAGUGGCGGUGGCUAGACUGCC | 0.07 |
| GGCAGAGCUCAAUACCGCGCGGCAAAGUGGCUGUGGCUUGACUGCC | 0.01 |
| GGCAGAGCUCAAGACAGCGUAGCAAAGUGCCUGUGGCUAGACUGCC | 0.02 |
| GGCAGAGCUCAAGACAACGUGGCAAUGUGGCGGUGGCUAGACUGCC | 0.02 |
| GGCAGAGCUCAAUCCAGCGUGGCAAAGUGUCUGUGGCUAGAGUGCG | 0.03 |
| GGCAGAGCUCAAGACAUAGUGGCAAAGUGGCUGUGGCUAGACUGCC | 0.05 |
| GGCAGAGCUCAAGACAGCGUGGCAAAGUGGCUGUGGCGAGUAUGCC | 0.02 |
| GGCAGAGCUCAAUUCAGCGUGGCAAAGUGGCUGUGGUUAGACUGCC | 0.04 |
